{"source": "ChEMBL document CHEMBL4888484", "about": "“Replenishing the malaria drug discovery pipeline: Screening and hit evaluation of the MMV Hit Generation Library 1 (HGL1) against asexual blood stage Plasmodium falciparum ,using a nano luciferase reporter read-out” (2022)", "note": "Hit rate of the full screen: of about 150,000 compounds, about 540 (0.36%) showed an effect of 50% or more. The list shows a part of the results."}
{"test_system": "Plasmodium falciparum", "test": "Primary screen in NF54 nanoGlo assay, in single point, at 2uM, 72h; a lower Z score goes with more inhibition", "assay_type": "functional, Erythrocyte", "conditions": "timepoint 72 hour", "units": {"% Inhibition": "%"}}
{"compound": "O=C(Cc1ccc(F)cc1)N1CCc2ncncc2C1", "% Inhibition": -9, "Z score": 1.63}
{"compound": "Cc1ccoc1C(=O)N[C@@H](C)c1cccc(N2CCCC2)c1", "% Inhibition": -3, "Z score": 0.38}
{"compound": "O=C(Nc1cccc(C(F)(F)F)c1)N1CCC(Oc2ncccc2Cl)CC1", "% Inhibition": 1, "Z score": -0.22}
{"compound": "CC(=O)N1N=C(c2ccccc2)OC12CCCC2", "% Inhibition": -4, "Z score": 0.67}
{"compound": "Cc1ncc(Cc2ccccc2)c(C2CCNCC2)n1", "% Inhibition": -12, "Z score": 2.03}
{"compound": "Cc1nc2n(c1C(=O)N(C)C)CCN(C(=O)Nc1ccc3cccnc3c1)C2", "% Inhibition": -5, "Z score": 0.6}
{"compound": "CCc1nc(C)ccc1OCC(=O)N1CCC2(CC1)C(=O)NCCN2C", "% Inhibition": 3, "Z score": -0.29}
{"compound": "CN(Cc1cc(C2CC2)on1)C(=O)CCCOc1ccccc1", "% Inhibition": -15, "Z score": 2.64}
{"compound": "CC(C)Cc1cc(C(=O)NCc2csc(N)n2)nc(=O)[nH]1", "% Inhibition": 17, "Z score": -2.16}
{"compound": "CCOCC(=O)NCc1ccc([C@H](O)c2ccccc2)s1", "% Inhibition": -13, "Z score": 1.69}
{"compound": "CCOc1cccc([C@@H]2CC(c3ccc(C)cc3)=NC3(CCN(CC)CC3)N2)c1O", "% Inhibition": -17, "Z score": 1.93}
{"compound": "C=CCn1ccnc1C(=O)NCCc1cscn1", "% Inhibition": -10, "Z score": 1.3}
{"compound": "CC1(C)CCc2nnc(C(=O)Nc3ccccn3)n2C1", "% Inhibition": 10, "Z score": -1.3}
{"compound": "O=C(c1[nH]nc2c1CCC2)N1CC(n2cccn2)C1", "% Inhibition": -4, "Z score": 0.89}
{"compound": "CCCN(CCN1CCCC1)C(=O)c1ccnc(N2CCO[C@@H](C)C2)c1", "% Inhibition": -5, "Z score": 0.74}
{"compound": "CC1(C)CCN(CCNC(=O)[C@H]2CC[C@H](Nc3cnccn3)CC2)C1", "% Inhibition": -6, "Z score": 0.88}
{"compound": "CCOc1ccc(S(=O)(=O)Nc2ccc(OC)c(N3CCCC3=O)c2)cc1", "% Inhibition": -7, "Z score": 1.13}
{"compound": "Cc1cc(C(=O)N2CCC(Oc3ncccc3F)CC2)c2nccc(C)c2c1", "% Inhibition": -3, "Z score": 0.34}
{"compound": "CN1CCN(Cc2ccc(-c3cccc4cccnc34)nc2)CC1", "% Inhibition": -12, "Z score": 2.1}
{"compound": "O=C(CS(=O)(=O)C1CCCC1)N(CCO)CC1CC1", "% Inhibition": -6, "Z score": 0.59}
{"compound": "O=S(=O)(NC[C@H]1COC2(CCCC2)O1)c1ccc(Cl)s1", "% Inhibition": -14, "Z score": 2.71}
{"compound": "CCc1cnc(C)nc1N1C[C@H]2CC=CC[C@H]2C1", "% Inhibition": -3, "Z score": 0.41}
{"compound": "O=C(CN1N=C(C(=O)Nc2ccccc2)CCC1=O)Nc1ccc(OC(F)(F)F)cc1", "% Inhibition": 38, "Z score": -4.94}
{"compound": "C1=C(CCNCc2ccccc2)c2ccccc2C1", "% Inhibition": -10, "Z score": 1.25}
{"compound": "O=C(NCc1nc(-c2cccs2)n[nH]1)c1cc[nH]n1", "% Inhibition": -13, "Z score": 2.57}
{"compound": "NCc1ccnc(OC2CCC3(CC2)OCCO3)c1", "% Inhibition": -4, "Z score": 0.58}
{"compound": "CC(C)=CCCN1CCC(c2cc(N3CCOCC3)nc(C)n2)CC1", "% Inhibition": 1, "Z score": -0.12}
{"compound": "CN1CCC[C@H](C(=O)N[C@H]2CC[C@H](Oc3ncccn3)CC2)C1", "% Inhibition": 13, "Z score": -1.46}
{"compound": "O=C(c1ccccc1F)N1C[C@@H]2CN(C3CCCC3)C[C@]2(C(=O)O)C1", "% Inhibition": -2, "Z score": 0.3}
{"compound": "COc1ccc(Oc2nccc(-c3ccc(F)cc3)c2C#N)cc1", "% Inhibition": 38, "Z score": -1.49}
{"compound": "COc1ccc(C(=O)NCc2ccc3c(c2)CCN3C(=O)c2ccncc2)cc1OC", "% Inhibition": -15, "Z score": 1.35}
{"compound": "CCn1c(CC2CCNCC2)nn(Cc2ccc(C)c(F)c2F)c1=O", "% Inhibition": -3, "Z score": 0.41}
{"compound": "CC(=O)N1CCc2ccc(OCc3nc(C(=O)NC4CC4)cs3)cc2[C@@H]1c1cccc(F)c1", "% Inhibition": -23, "Z score": 3.04}
{"compound": "COC(=O)c1ccc(N2CCN(C(=O)CCn3cnnc3)CC2)cc1", "% Inhibition": -11, "Z score": 1.11}
{"compound": "O=S(=O)(Cc1ccc(OC(F)(F)F)cc1)Nc1cnc2c(c1)COCC2", "% Inhibition": -11, "Z score": 1.24}
{"compound": "CC1(C)CO[C@H](c2cccc(F)c2)CN1S(=O)(=O)N1CCCCCC1", "% Inhibition": 14, "Z score": -1.77}
{"compound": "O=S(=O)(Cc1ccccc1)N1CC[C@H](Oc2ncc(Br)cn2)C1", "% Inhibition": -5, "Z score": 0.81}
{"compound": "O=C(c1ccc(NC2CCCC2)nn1)N1CCc2ccccc21", "% Inhibition": 1, "Z score": -0.16}
{"compound": "COCc1ncc(C)n1CCNC(=O)c1ccncc1", "% Inhibition": 2, "Z score": -0.25}
{"compound": "CCCn1c(=O)c2sc(N3CCCCC3)nc2n(CC(=O)Nc2ccc(C(F)(F)F)cc2)c1=O", "% Inhibition": -25, "Z score": 2.2}
{"compound": "O=C(Nc1ccccc1Cc1ccccc1)N1C[C@H]2CC[C@@H](C1)[C@H]2O", "% Inhibition": -6, "Z score": 0.85}
{"compound": "Cc1ncc(CN(C)Cn2nc3ccccn3c2=O)s1", "% Inhibition": 27, "Z score": -3.09}
{"compound": "CN(Cc1cc(C(N)=O)cs1)[C@H]1CCCN(Cc2ccccc2)C1", "% Inhibition": -2, "Z score": 0.49}
{"compound": "CCOc1ccc(CC(=O)N2CC(=O)N(Cc3ccccc3)C3(CCCCC3)C2)cc1", "% Inhibition": -8, "Z score": 1.16}
{"compound": "CC1(O)CC(C(=O)N2CCC(F)(F)C2)C1", "note": "(centres undefined)", "% Inhibition": -12, "Z score": 1.67}
{"compound": "O=C(NC1CCn2ccnc21)N1CCC[C@H]1COc1ccc(F)cc1", "note": "(some centres undefined)", "% Inhibition": -10, "Z score": 1.96}
{"compound": "CCCc1nc(N2CCN(C(=O)c3ccc(Cl)cc3)CC2)c2c(-c3cccc(C(F)(F)F)c3)noc2n1", "% Inhibition": -13, "Z score": 1.24}
{"compound": "CCC1CN(C(=O)C(C)C)CCC1NCC=Cc1ccccc1", "note": "(centres undefined)", "% Inhibition": -10, "Z score": 1.31}
{"compound": "CC(NC1CC(C)(C)CCc2ccccc21)c1nnnn1C", "note": "(centres undefined)", "% Inhibition": -7, "Z score": 1.08}
{"compound": "COc1ccc([C@@H](C)C(=O)N(C)c2ccc(Br)cn2)cc1", "% Inhibition": -11, "Z score": 1.45}
{"compound": "c1ccc2c(c1)OCCN2Cc1cnc2ncccn12", "% Inhibition": -14, "Z score": 1.44}
{"compound": "COc1ccc(CNC(=O)c2nc(-c3ccc4c(c3)OCO4)no2)cc1OC", "% Inhibition": -7, "Z score": 0.95}
{"compound": "CC(C)Cc1ccc(S(=O)(=O)N2C[C@@H](F)C[C@H]2C(=O)N2CCc3ccccc32)cc1", "% Inhibition": 4, "Z score": -0.51}
{"compound": "CC(C)c1nnnn1CC(=O)N[C@](C)(c1ccccc1)C(F)(F)F", "% Inhibition": -6, "Z score": 1.08}
{"compound": "COc1c(F)c(F)c(C(=O)O)c(N(C)c2ccccc2)c1F", "% Inhibition": -1, "Z score": 0.24}
{"compound": "Cc1nsc(NC(=O)[C@@H]2CCCN2c2ncnc3sccc23)c1C#N", "% Inhibition": 1, "Z score": -0.21}
{"compound": "Nc1nc(CNC(=O)C2(N3CCOCC3)CCCCC2)n[nH]1", "% Inhibition": 17, "Z score": -2.45}
{"compound": "Brc1ccccc1CNCc1ccc2nccnc2c1", "% Inhibition": -6, "Z score": 0.79}
{"compound": "Clc1ccc(OCc2cccs2)c(CNCc2cccnc2)c1", "% Inhibition": -8, "Z score": 1.12}
{"compound": "Cc1cc(=O)[nH]c(NCCNC(=O)c2cnc(C(C)(C)C)nc2O)n1", "% Inhibition": -14, "Z score": 2.84}
{"compound": "CC(C)NC(=O)[C@H](C)ONC(=O)C1CCCC1", "% Inhibition": -19, "Z score": 2.65}
{"compound": "CC(C)COc1cncc(N2CCN(C3CC3)C(=O)C2)n1", "% Inhibition": -5, "Z score": 0.86}
{"compound": "CC12CN(C(=O)NC3CCCCC3)C3(C(=O)OCc4ccccc4)CC1CCC23C", "note": "(centres undefined)", "% Inhibition": 1, "Z score": -0.1}
{"compound": "Cn1c(=O)c2c(c(-c3ccccc3)cn2C)n(CC(=O)Nc2cc(Cl)cc(Cl)c2)c1=O", "% Inhibition": 46, "Z score": -6.18}
{"compound": "CC(C)(C)c1csc(C=Cc2csc(-c3ccccn3)n2)n1", "% Inhibition": 3, "Z score": -0.38}
{"compound": "CCCCN1CCN(C(=O)c2nc(-c3ccnc(N4CCCC4)c3)no2)CC1", "% Inhibition": -12, "Z score": 2.12}
{"compound": "O=C1[C@@H](N2CCOCC2)CCCN1Cc1ccccc1C(F)(F)F", "% Inhibition": 0, "Z score": -0.05}
{"compound": "Cc1cc(C(=O)N2CCC(CN3CCCCC3=O)CC2)[nH]n1", "% Inhibition": 17, "Z score": -2.2}
{"compound": "O=C(NCC1CCCC1)NCC1CCCC1O", "note": "(centres undefined)", "% Inhibition": -3, "Z score": 0.49}
{"compound": "CCn1cc(CN2CCC3(CCCC3)C2)cc1C#N", "% Inhibition": -11, "Z score": 1.04}
{"compound": "COC[C@@H]1CN(Cc2ccc3cc[nH]c3c2)C[C@H]1c1nc(C)no1", "% Inhibition": -12, "Z score": 1.92}
{"compound": "O=C(NCc1ccncc1OCC(F)(F)F)N1CCC(CO)CC1", "% Inhibition": -6, "Z score": 0.99}
{"compound": "C[C@@H]1OCCO[C@@H]1C(=O)Nc1ccn(-c2ccc(Cl)cc2)n1", "% Inhibition": -11, "Z score": 1.74}
{"compound": "Cc1ccc(F)cc1NC(=O)c1coc(C2CCOCC2)n1", "% Inhibition": 22, "Z score": -2.58}
{"compound": "COc1cc(C(=O)NCC[C@H](C)N2CCN(C)CC2)ccn1", "% Inhibition": -10, "Z score": 1.7}
{"compound": "CCCCC(=O)N1C[C@H](C)OCC1(C)C", "% Inhibition": -11, "Z score": 1.47}
{"compound": "CO[C@@H]1CN(Cc2c3c(nn2C)CCCC3)CCO1", "% Inhibition": -4, "Z score": 0.58}
{"compound": "COc1cccc(Cn2ccc(-c3cccc(-c4nccnc4C)c3)n2)c1", "% Inhibition": 13, "Z score": -1.75}
{"compound": "C[C@@H](c1ccncc1)N(C)Cc1cncs1", "% Inhibition": -2, "Z score": 0.25}
{"compound": "CC(C)C(NC(=O)N(C)Cc1ncon1)C(C)C", "% Inhibition": -12, "Z score": 1.63}
{"compound": "CC(C)(C)OC(=O)N1CCC[C@H](Oc2ccncn2)C1", "% Inhibition": 7, "Z score": -0.91}
{"compound": "O=C(Cc1ccsc1)NCc1cncc(-c2cccs2)c1", "% Inhibition": -8, "Z score": 1.66}
{"compound": "CC(C)[C@H](CN(Cc1ccc(Cl)c(Cl)c1)S(=O)(=O)N(C)CCC#N)N(C)C", "% Inhibition": 1, "Z score": -0.15}
{"compound": "Cn1cc(-c2nc([C@@H]3CCCCCN3C(=O)c3ccccn3)no2)cn1", "% Inhibition": -3, "Z score": 0.37}
{"compound": "CCN1C(=O)CCc2cc(NCc3ccnn3CC)ccc21", "% Inhibition": 1, "Z score": -0.16}
{"compound": "CCOCC1CCN(C(=O)C2CCCCN2C(=O)c2ccco2)C1", "note": "(centres undefined)", "% Inhibition": -8, "Z score": 1.41}
{"compound": "Cn1ccc(NC(=O)Nc2ccc(OCCN3CCCCC3)cc2)n1", "% Inhibition": -2, "Z score": 0.23}
